Laboratory results: the supplement of paper PMC3334620
The full ranking holds about 33,000 sequences; the median of “E-score (-0.5 to 0.5)” is about -0.053, and the highest 2% start at about 0.37. Some of the results follow.

Target: Hap1 (UniProt P0CE41)
Test: PBM E-score (8-mer binding enrichment) (E-score (-0.5 to 0.5)); higher = stronger / more preferred TF binding; most listed sequences are background and not binding sites
Settings: protein concentration: 200 nM; construct: GST-DNA-binding domain
In short: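 Yeast transcription factors carrying a GST tag, as full-length proteins or DNA-binding domains, were produced by PURExpress in vitro transcription/translation. About 100-200 nM protein was applied to universal all-10-mer Agilent arrays, double-stranded by primer extension on fresh or once-stripped slides. Bound protein was detected with fluorescent anti-GST, and scans were normalised with masliner. The Universal PBM Analysis Suite gave each ungapped eight-base word, pooled with its reverse complement, an E-score, a modified Wilcoxon-Mann-Whitney statistic.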

Sequence of UniProt P0CE41 (P0CE41 whole entry): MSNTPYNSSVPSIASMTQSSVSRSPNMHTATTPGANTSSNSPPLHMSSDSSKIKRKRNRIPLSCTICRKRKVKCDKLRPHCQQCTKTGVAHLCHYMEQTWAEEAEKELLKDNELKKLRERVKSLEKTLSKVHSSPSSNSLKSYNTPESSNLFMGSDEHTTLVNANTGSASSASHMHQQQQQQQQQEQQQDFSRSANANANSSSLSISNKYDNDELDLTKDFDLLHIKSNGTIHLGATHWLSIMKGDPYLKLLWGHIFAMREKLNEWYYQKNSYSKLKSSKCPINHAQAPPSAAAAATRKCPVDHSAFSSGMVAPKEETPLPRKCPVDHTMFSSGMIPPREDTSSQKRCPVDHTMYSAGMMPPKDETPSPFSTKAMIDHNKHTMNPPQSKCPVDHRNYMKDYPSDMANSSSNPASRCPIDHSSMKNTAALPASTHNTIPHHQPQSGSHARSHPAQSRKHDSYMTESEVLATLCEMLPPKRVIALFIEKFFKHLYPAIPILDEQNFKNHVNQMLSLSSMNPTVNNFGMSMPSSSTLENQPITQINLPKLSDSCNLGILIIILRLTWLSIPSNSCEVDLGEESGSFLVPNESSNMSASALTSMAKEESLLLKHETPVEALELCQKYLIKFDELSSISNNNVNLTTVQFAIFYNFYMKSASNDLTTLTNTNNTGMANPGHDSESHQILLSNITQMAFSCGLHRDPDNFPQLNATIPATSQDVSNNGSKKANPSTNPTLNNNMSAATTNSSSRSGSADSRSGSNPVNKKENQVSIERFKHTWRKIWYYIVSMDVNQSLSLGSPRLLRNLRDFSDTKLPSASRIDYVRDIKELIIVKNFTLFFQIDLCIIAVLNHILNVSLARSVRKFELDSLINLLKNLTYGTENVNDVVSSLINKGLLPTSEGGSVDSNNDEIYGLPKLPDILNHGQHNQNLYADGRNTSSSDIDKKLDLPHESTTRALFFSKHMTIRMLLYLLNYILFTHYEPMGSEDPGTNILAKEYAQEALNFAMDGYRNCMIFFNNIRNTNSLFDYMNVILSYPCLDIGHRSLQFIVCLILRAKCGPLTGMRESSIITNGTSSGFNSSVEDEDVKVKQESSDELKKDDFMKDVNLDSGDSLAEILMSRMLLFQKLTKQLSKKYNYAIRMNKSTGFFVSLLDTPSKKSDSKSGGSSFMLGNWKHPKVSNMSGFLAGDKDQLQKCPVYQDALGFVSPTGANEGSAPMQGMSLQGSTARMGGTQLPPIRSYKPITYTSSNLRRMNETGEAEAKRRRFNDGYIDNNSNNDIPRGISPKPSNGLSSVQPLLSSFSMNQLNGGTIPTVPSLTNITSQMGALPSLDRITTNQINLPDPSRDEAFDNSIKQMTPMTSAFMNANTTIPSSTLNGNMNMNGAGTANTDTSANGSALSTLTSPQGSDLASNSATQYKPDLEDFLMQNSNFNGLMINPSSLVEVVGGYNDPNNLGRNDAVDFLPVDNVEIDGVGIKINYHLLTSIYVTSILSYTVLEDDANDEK

Sequence | PBM E-score
AGGCCCCG | -0.00755
ATCTATGA | -0.203
ACACGCCG | 0.244
GTGCCCGA | 0.161
AAGTACTG | -0.0833
AAACACAA | -0.169
AGACGCGA | 0.0238
CTTGCGTA | -0.117
ACATCCCG | 0.302
CGGAGGAC | 0.325
AACGGGTA | 0.0822
AAAAGTAG | -0.174
CACCGACA | 0.226
AGAGTGAG | -0.132
ACTTGTCA | 0.0911
AGCAAGAC | -0.0948
ATTAATTG | -0.054
ACGTTCCC | -0.101
CTGGACAG | -0.13
CCAATAGC | -0.0632
CACACCTC | 0.0394
ATGGGAAG | -0.253
AGAATCTA | -0.142
AACTTGTG | -0.0262
CGTCCAAA | 0.0813

Sequence | PBM E-score
ATTTTAGG | -0.0974
AAACGATA | -0.0324
CTTGCAAG | 0.103
ATAGCGTA | 0.0245
ATATGTTA | -0.155
TACCCTGA | -0.199
CTGACGAC | -0.151
ACAGCATC | -0.0955
AATGAGGA | -0.199
GATACAAA | 0.0995
AAAGACGT | 0.0653
CATGGTAG | -0.279
CAGCGGGG | 0.0523
GTTTCCTA | -0.156
ACAGCAAC | -0.0788
ATCCTAAG | -0.176
AAAACGGA | 0.208
CGTATCAC | -0.0289
CATTGTAC | -0.164
TTCCAGAA | -0.0714
CTTACCCA | -0.113
CTGCAATA | -0.0479
GAGATACA | 0.141
AGGATCAG | -0.217
ACTTCAGC | -0.209

Sequence | PBM E-score
TGTGACAA | -0.177
GGATTACC | 0.231
GATAGGAA | 0.0453
AAGCGTGG | -0.0777
AGAACGCT | -0.216
GACACGGA | 0.233
CCAATACG | -0.111
AAGAAATT | 0.0979
GACCTACA | -0.135
GTACATGA | -0.307
GAGGGTCA | -0.209
CTGGCATA | -0.0878
TCTAGTCA | -0.174
CACCACGC | -0.201
CATAAGCC | 0.0632
CAACGAGG | -0.16
CAACGAGA | -0.0854
CCGCGGTA | 0.303
GCTCTTAC | 0.0248
TGCTCAAA | -0.145
AGATTCAA | -0.0472
CAATATTG | -0.318
AATTGTCA | -0.227
CGGGGCCC | 0.258
TAGACAGA | -0.17

Sequence | PBM E-score
ACCGATTG | 0.0789
GTAACGAA | -0.241
AACATGCT | -0.0758
CCCATACG | -0.0568
CGTATGCA | -0.0239
CAGCCAGA | -0.106
GAAAGCTC | -0.118
AAAAGAGT | -0.161
AGAGAGGC | -0.218
GATGGAAC | -0.0721
GCCTAGTA | -0.0319
CATTATAA | 0.0319
AGAGTTAC | -0.312
AATGTTTG | -0.0712
AAGCATAG | -0.309
ACAGTTGG | -0.245
GACTGAGC | -0.313
CATCATAC | -0.0798
ATTATCGA | -0.0673
GGGGTCGA | 0.114
ATATCGAG | 0.163
ACGAAGCA | -0.243
CCCTCCTA | -0.0102
AATGCTCT | -0.23
GCAAATAC | -0.0284

Sequence | PBM E-score
CGTCCGGC | 0.41
AAACCGGT | 0.32
CCGGTTCA | 0.267
GCGGTCCA | 0.0745
GAGGTCAA | -0.0531
GAAGAGGC | 0.0554
ATCCAACC | 0.0312
AGCGTAGG | -0.122
GCTGAGAC | -0.0677
CGAGCTAA | 0.237
AGGCCTAT | -0.286
GCTAATGA | -0.088
GATGCAAA | -0.165
GGCGTGAC | -0.0962
GATGCCGA | 0.224
GCTGGAGA | -0.133
AACATCCT | -0.172
AGACGGCT | -0.00912
GCCGGGTA | 0.252
ACACTTGC | -0.111
GTATAACA | -0.029
CTTGATCC | -0.0265
AAATGGTA | -0.136
AAAATGCC | -0.0134
CCTTAGAA | -0.0957

Sequence | PBM E-score
GTTCACAA | -0.0642
CGGAAGGA | 0.23
ACTGATAC | -0.0124
ATTGACAC | -0.24
AAATCTGC | -0.142
GCTCGCCC | -0.00337
ATGGTTCA | -0.0973
CTAGCATA | -0.0461
GATAACTA | 0.143
AACCCGTA | 0.171
CTGAGCGC | -0.176
AAGGAGTC | -0.166
GCTGCGAA | -0.104
CGACACAA | -0.129
ACACAGCC | 0.0235
GGTTCTTA | -0.059
AGATCACT | -0.0154
CAGATAGC | -0.202
GGCCGGGA | 0.336
TACGTCTA | -0.271
AGGTCGTC | -0.0954
AATCACAT | 0.0324
AAGTACTT | -0.0508
GCCTCGGA | 0.331
ACACACAT | -0.133

Sequence | PBM E-score
GACTCTCA | -0.0761
CAGTTGAG | -0.225
ATACTCAG | -0.00136
CCATGATA | -0.132
AGAGACCT | -0.0963
ACATAAGC | -0.0155
GTGCACCA | -0.15
CATCTAGA | -0.209
TGTTAACA | -0.0556
ACTTTTAG | -0.0277
GCTAGGAC | -0.0426
TCCCTCAA | -0.122
ACGTGTCG | -0.181
GATTCGGA | 0.299
ATGGTCGC | 0.0358
CATTGGCC | -0.146
GGATATAA | 0.382
CCTACCCA | -0.316
GATGGGAA | -0.247
CGCCCCGA | 0.365
AGGTTAAG | -0.241
CCCCAACA | -0.121
GCACAAAC | -0.00294
CCTGAAGG | -0.281
CGGTAACG | 0.301

Sequence | PBM E-score
GGCGAGCC | -0.00718
CGGCCTAA | 0.257
AGATGAAA | -0.154
CTAGCGAA | -0.245
CATCGATC | -0.0952
CAGACGCA | -0.116
AGAGTTCG | 0.0504
GTGACGTA | -0.0822
AGTTCCAG | -0.09
CGTAAGGA | -0.0439
ATCGATGA | -0.0523
CCTCTCCC | -0.239
ACCTACGA | -0.25
CCAGTCGC | 0.0863
AGTGCCGC | 0.088
CAGGCCTA | -0.163
CCTCAGAA | -0.308
CACTGATA | -0.348
CAACCATG | -0.0771
AGCTTGAG | -0.0792
CCGCGGCA | 0.273
GTGGCTCA | -0.268
ATCTCCAG | 0.0473
CGCTTCCC | 0.111
TAGTAGCA | -0.123

Sequence | PBM E-score
AAAATCTG | -0.103
AAAGCACC | 0.0385
ATCTGTGA | -0.0202
CGTATGAG | -0.0106
GATGGGCA | -0.122
CAAGTCAA | -0.327
ACAGTCCA | -0.262
TAATGCTA | -0.0594
GGTTCCTA | -0.102
ACAAGAGG | -0.125
CCCTTATA | 0.0837
AAGGAAAG | 0.0672
CTCAAGTC | -0.144
AACGGGGC | 0.161
CTTGTGAA | -0.141
AACGTCAA | -0.179
AATATGGT | 0.0334
ATAGGACC | 0.109
AAACGCCA | 0.0524
